Test results reported in PMC10163920 (European journal of cell biology, 2022).
Values belong to the binder of their own block, whether it stands above or below them.

Target: Rabbit skeletal muscle actin (unlabeled actin monomers) (rabbit, UniProt P68135)
Assay: fluorescence polarisation

B1: profilin-1 A20T (ALS-associated variant) (natural protein)
chain: not shown
- Kd: 148 ± 16.6 nM

B2: profilin-1 H120E (actin-binding impaired control) (natural protein)
chain: not shown
- Kd: 6720 ± 5420 nM

B4: profilin-1 M114T (ALS-associated variant) (natural protein)
chain: not shown
- binding result: binds

B7: profilin-1 E117G (ALS-associated variant) (natural protein)
chain: not shown
- Kd: 113 ± 16.5 nM

B8: profilin-1 G118V (ALS-associated variant) (natural protein)
chain: not shown
- Kd: 1200 ± 311 nM

Further lines, results first:

- Kd: 825 ± 17.6 nM
B3: profilin-1 R136W (ALS-associated variant) (natural protein)
chain: not shown

- Kd: 77.9 ± 4.9 nM
B5: profilin-1 Q139L (ALS-associated variant) (natural protein)
chain: not shown

- Kd: 204 ± 33.4 nM
B6: profilin-1 T109M (ALS-associated variant) (natural protein)
chain: not shown
